Laboratory results published in PubChem BioAssay AID2147 (National Center for Advancing Translational Sciences (NCATS), 2009).
The campaign covered roughly 230,000 compounds. About 3,600 (1.6%) were called active. Inconclusive results, whose numbers are uncertain, are shown with a selection of clear calls. Calls follow the shape of the dose curve; as a rule, active = well fitted inhibition curve with a large enough effect (not every such curve was filed as active); inconclusive = small, poorly fitted or top-dose-only effect, or another doubt; inactive = no such curve, though single readings can be large or run the other way. A potency beside an inconclusive call is a rough fit, not a confirmed value.

Molecular target: Lysine-specific demethylase 4E (Homo sapiens) (UniProt B2RXH2)
Assay: qHTS Assay for Inhibitors of Human Jumonji Domain Containing 2E (JMJD2E)
Conditions: JMJD2E catalytic domain, FDH-coupled NADH fluorescence (FDH is formaldehyde dehydrogenase); series mostly up to 57.1 µM; activity change, negative = inhibition: at the top concentration
Also: nearly all actives have a fitted effect of over 50% in size.
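For activity change, negative = inhibition in this document: 0% = wells with enzyme and -100% = buffer wells without enzyme.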
Potency is read from the fitted curve at half-maximal effect; tags tell the direction and shape of the fitted curve.

Sequence of UniProt B2RXH2 (B2RXH2 whole entry, looked up, the tested form may be a part): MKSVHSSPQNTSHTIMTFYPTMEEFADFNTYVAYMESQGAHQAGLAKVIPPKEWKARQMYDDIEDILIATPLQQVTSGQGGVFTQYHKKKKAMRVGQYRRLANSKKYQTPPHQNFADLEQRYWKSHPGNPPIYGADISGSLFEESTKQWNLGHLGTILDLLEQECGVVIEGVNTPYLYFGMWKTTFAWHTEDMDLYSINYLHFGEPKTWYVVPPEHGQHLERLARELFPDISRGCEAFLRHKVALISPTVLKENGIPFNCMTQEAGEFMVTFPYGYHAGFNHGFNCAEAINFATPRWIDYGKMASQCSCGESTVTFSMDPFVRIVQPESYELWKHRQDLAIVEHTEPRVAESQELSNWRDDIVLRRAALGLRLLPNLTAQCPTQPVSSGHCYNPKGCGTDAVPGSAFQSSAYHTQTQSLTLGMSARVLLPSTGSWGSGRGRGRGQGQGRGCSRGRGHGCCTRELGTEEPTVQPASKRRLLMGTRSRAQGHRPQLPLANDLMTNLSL

| SMILES | Potency | activity change, negative = inhibition |
| --- | --- | --- |
| Cc1ccc(N(Cc2cc(=O)[nH]c3ccccc23)C(=O)c2ccco2)cc1 | inconclusive: 28.2 µM [inhibitor, single point] | – |
| O=C(Nc1ccccc1Cc1ccccc1)c1oc2ccccc2c1COc1ccccc1 | inconclusive: 35.5 µM [inhibitor, single point] | – |
| CCO[C@@H]1OC(C(=O)NCc2nc3ccccc3[nH]2)=C[C@H](C2CC2)[C@H]1CCCO | inconclusive: 8.91 µM [inhibitor, single point] | – |
| CCOCCSc1nc2c(c(-c3cccs3)c1C#N)CC/C2=C/c1cccs1 | – | inactive: -4.91% |
| Cn1c(=O)[nH]c(=O)c2c1nc(N1CCCCC1)n2C/C=N/Nc1ccc(C(=O)O)cc1 | – | inactive: -25.1% |
| COc1ccc(CCNC(=O)C(=O)N/N=C/c2cccs2)cc1OC | – | inactive: 1.29% |
| O=C(Nc1cccnc1)c1ccc(-c2cc(Cl)ccc2Cl)o1 | inconclusive: 35.5 µM [inhibitor, partial curve] | – |
| CCOC(=O)CNC(=O)C1c2ccccc2C(=O)N(c2ccc(OC)cc2)C1c1ccc(OC)cc1 (stereo not drawn) | – | inactive: -10.9% |
| Clc1ccc(-c2csc(N/N=C/c3ccco3)n2)cc1 | – | inactive: -13% |
| Cc1ccc(-n2c(C)cc3c2CC(C)(C)CC3=O)cc1C | – | inactive: -4.79% |
| CSc1cccc(NC(=S)N2CCC(N(C)C3CCCCC3C)CC2)c1 (stereo not drawn) | – | inactive: 8.4% |
| COc1ccc2c(c1)Cc1sc(NC(=O)c3cccs3)nc1-2 | active: 11.2 µM | – |
| CC1CN(c2ccc(Oc3ccccc3)cc2)c2nc3c(c(=O)n(CC(N)=O)c(=O)n3C)n2C1 (stereo not drawn) | inconclusive: 35.5 µM [inhibitor, single point] | – |
| Cc1cccc(-n2c(-c3ccncc3)n[nH]c2=S)c1 | inconclusive: 39.8 µM [inhibitor, single point] | – |
| Cc1ccccc1CN(c1ccc(C(=O)N/N=C/c2ccc(OCC(N)=O)cc2)cc1)S(C)(=O)=O | – | inactive: -22.4% |
| CCCCCCn1c(C(C)NC(=O)c2ccco2)nc2ccccc21 (stereo not drawn) | – | inactive: -4.29% |
| O=c1[nH]ncc(N/N=C\c2ccc(O)cc2O)c1Cl | – | inactive: -13% |
| O=C(O)/C=C\c1ccc(O)c(O)c1 | active: 11.2 µM | – |
| O=S(=O)(Nc1c(S(=O)(=O)c2ccccc2)c2nc3ccccc3nc2n1C1CCCCC1)c1ccccc1 | inconclusive: 8.91 µM [inhibitor, partial curve] | – |
| CN(C)c1oc(-c2ccco2)nc1C#N | inconclusive: 31.6 µM [inhibitor, partial curve] | – |
| Cc1cccc(NC(=S)NN2CCN(C)CC2)c1C | – | inactive: 15.4% |
| CCc1nc(N)c(C#N)c(-c2cccnc2)c1C | – | inactive: -23.4% |
| O=[N+]([O-])c1ccccc1/C=C\C=N\N1CCN(c2ccccc2)CC1 | – | inactive: -6.79% |
| COc1ccc(/C=C/C(=O)NC(=S)N2CCN(c3ccccn3)CC2)cc1OC | inconclusive: 22.4 µM [inhibitor, single point] | – |
| C/C(=N\NC(=O)c1ccc(CN2CCOCC2)cc1)c1cccc([N+](=O)[O-])c1 | – | inactive: 5.72% |

| SMILES | Potency | activity change, negative = inhibition |
| --- | --- | --- |
| Cc1cccc(N(C)c2cc(C)nc3ncnn23)c1 | – | inactive: 2.5% |
| CC(=O)c1cc(NC(=O)c2ccc(Cl)cc2)c(=O)oc1/C=C/N(C)C | inconclusive: 17.8 µM [inhibitor, partial curve] | – |
| COCCn1c(SCC(=O)N2CCCc3ccccc32)nc2cccnc21 | – | inactive: 8.27% |
| Cc1ccc2oc(-c3ccc(NC(=O)c4ccc5c(c4)OCO5)cc3)nc2c1 | inconclusive: 3.16 µM [inhibitor, partial curve] | – |
| O=C(c1ccc(C(F)(F)F)cc1)N1CCCCC1 | – | inactive: 8.59% |
| CN(C)c1ccc(-c2nc3ccccc3c(=O)[nH]2)cc1 | inconclusive: 31.6 µM [inhibitor, partial curve] | – |
| O=C(c1ccc(Br)cc1)N1CCCC1 | – | inactive: 5.43% |
| CCCCN(CC)CCCNC(=O)C1CCN(c2ncnc3c2sc2cccc(F)c23)CC1 | – | inactive: -20.9% |
| CCOC(=O)Cc1nc2ccccc2n(CC#N)c1=O | inconclusive: 31.6 µM [inhibitor, partial curve] | – |
| O=C1NC(=Nc2ccc(Cl)cc2)/C(=C/c2ccco2)S1 | inconclusive: 35.5 µM [inhibitor, single point] | – |
| COc1ccc(C2c3ccc4ccccc4c3Oc3ncn(Cc4ccco4)c(=N)c32)cc1OC (stereo not drawn) | inconclusive: 35.5 µM [inhibitor, single point] | – |
| Cn1c(=O)[nH]c2ccc([N+](=O)[O-])nc21 | inconclusive: 4.47 µM [inhibitor, full curve] | – |
| O=C(CSCc1cccc(Br)c1)N=Nc1c(O)[nH]c2ccccc12 | – | inactive: -10.8% |
| O=C1c2ccccc2C(O)(c2ccccc2)N1C1CC1 (stereo not drawn) | inconclusive: 7.08 µM [inhibitor, single point] | – |
| CCCn1c(=O)[nH]c(=O)c2c1nc(-c1ccc(OC(F)(F)C(F)C(F)(F)F)cc1)n2CCOC (stereo not drawn) | inconclusive: 25.1 µM [inhibitor, partial curve] | – |
| C=C(C)Cn1c(NCCOC)nc2c1c(=O)[nH]c(=O)n2C | inconclusive: 44.7 µM [inhibitor, partial curve, poor fit] | – |
| O=S(=O)(c1ccc2ccccc2c1)N1CCN(C2Cc3ccccc3C2)CC1 | inconclusive: 35.5 µM [inhibitor, single point] | – |
| O=C(Nc1ccc2oc(-c3ccccc3F)nc2c1)c1cncc(Br)c1 | inconclusive: 20 µM [inhibitor, single point] | – |
| CCOC(=O)C1Cn2c(nc3c(c2=O)C(C)(C)Cc2ccccc2-3)S1 (stereo not drawn) | inconclusive: 25.1 µM [inhibitor, single point] | – |
| CCOc1cc(CNc2ccc(O)cc2)ccc1OCc1ccc(Cl)cc1Cl | active: 4.47 µM | – |
| Cc1ccc2[nH]c(-c3cccc(F)c3)cc(=O)c2c1 | inconclusive: 28.2 µM [inhibitor, partial curve] | – |
| O=C(Cn1cc(S(=O)(=O)Cc2ccccc2)c2ccccc21)Nc1ccccc1 | inconclusive: 35.5 µM [inhibitor, single point] | – |
| COc1ccccc1N1CCN(CCCCN2C(=O)c3ccccc3C2=O)CC1 | inconclusive: 35.5 µM [inhibitor, partial curve] | – |
| CCOc1cc(C(=O)Nc2ccc(N3CCOCC3)cc2)cc(Br)c1OC | inconclusive: 35.5 µM [inhibitor, single point] | – |
| Cc1cc(C)c2nc(-c3ccccn3)cc(C(=O)NCc3ccc(S(N)(=O)=O)cc3)c2c1 | inconclusive: 14.1 µM [inhibitor, partial curve] | – |

| SMILES | Potency | activity change, negative = inhibition |
| --- | --- | --- |
| CC(=O)c1c(OC(=O)c2ccccc2Br)ccc2c(C)cc(=O)oc12 | – | inactive: -3.01% |
| COCCn1c(SCC(=O)c2ccc3c(c2)OCCO3)nnc1-c1ccoc1C | – | inactive: -7.3% |
| CCOC(=O)c1ccc(N2C(=O)CC(Nc3ccc(CCO)cc3)C2=O)cc1 (stereo not drawn) | inconclusive: 3.98 µM [inhibitor, single point] | – |
| CC(=O)O[C@H]1C[C@@H]2CCC3C(CC[C@@]4(C)[C@H]3C[C@H]([N+]3(C)CCCCC3)[C@@H]4OC(C)=O)[C@@]2(C)C[C@@H]1[N+]1(C)CCCCC1 (stereo partly drawn) | – | inactive: 3.3% |
| O=C(c1ccc2ccccc2c1)N1CCN(c2ccc(C(F)(F)F)cn2)CC1 | – | inactive: -14% |
| CC(=O)Nc1ccc(S(=O)(=O)C(C#N)c2nc3ccccc3nc2NCCN2CCOCC2)cc1 (stereo not drawn) | inconclusive: 20 µM [inhibitor, partial curve] | – |
| CCOC(=O)COc1cccc2c(=O)n(CC(=O)NCc3ccc4c(c3)OCO4)ccc12 | inconclusive: 35.5 µM [inhibitor, single point] | – |
| Cc1c(N2C(=O)CS/C2=N\N=C\c2ccc(Cl)cc2)c(=O)n(-c2ccccc2)n1C | – | inactive: 8.87% |
| CCOC(=O)c1cc2c(ccn2C)n1Cc1ccccc1C | inconclusive: 35.5 µM [inhibitor, single point] | – |
| Cc1ccc2[nH]c(=O)c(CN(Cc3ccc4c(c3)OCO4)Cc3nnnn3Cc3ccco3)cc2c1 | inconclusive: 39.8 µM [inhibitor, single point] | – |
| O=C1OC(c2ccc(Cl)cc2)/C(=C(/O)c2ccccc2)C1=O (stereo not drawn) | – | inactive: -27.6% |
| Cc1nc2ccccc2c(=O)n1NCc1cccs1 | – | inactive: -3.26% |
| Cc1ccc(C(=O)N2NC(c3ccc(F)cc3)C3C(=O)N(c4ccc(C)cc4)C(=O)C32)cc1 (stereo not drawn) | inconclusive: 25.1 µM [inhibitor, single point] | – |
| Cn1c(-c2ccc3c(c2)OCO3)cnc1NCc1cccc(O)c1 | inconclusive: 31.6 µM [inhibitor, single point] | – |
| CCCOc1ccc(C(O)(CCC)CCN2CCCCC2)cc1 (stereo not drawn) | – | inactive: 9.35% |
| Cc1cc(NC(=O)c2cccs2)ccc1NC(=O)Cc1ccccc1 | inconclusive: 39.8 µM [inhibitor, single point] | – |
| O=C(c1ccc(N2CN(C(=O)c3ccco3)c3nc4ccccc4nc32)cc1)N1CCOCC1 | inconclusive: 31.6 µM [inhibitor, single point] | – |
| O=C1NC(c2ccncc2)Nc2ccccc21 (stereo not drawn) | inconclusive: 35.5 µM [inhibitor, single point] | – |
| COc1ccc(-c2cc(C(F)(F)F)n3nc(C(=O)Nc4cc(C)on4)cc3n2)cc1OC | inconclusive: 35.5 µM [inhibitor, single point] | – |
| COc1ccc(-c2nsc(C(=O)N(c3ccc(F)cc3)C(C(=O)NC3CCCC3)c3ccc(OC)cc3)c2N)cc1 (stereo not drawn) | inconclusive: 25.1 µM [inhibitor, partial curve] | – |
| CC(C)CCNC(=S)Nc1ccc2nc3n(c(=O)c2c1)CCCCC3 | – | inactive: -4.3% |
| COc1ccc(-c2nn(-c3ccccc3)cc2/C=N/Nc2ccc3ccccc3n2)cc1OC | inconclusive: 11.2 µM [inhibitor, partial curve] | – |
| COc1ccc(OC)c(-c2csc(N(Cc3ccco3)C(=O)c3cccs3)n2)c1 | inconclusive: 4.47 µM [inhibitor, single point] | – |
